# Results from the supplement of paper PMC8728848.
# The list shows a part of the results.
# Tests used:
# Experiment in all cases: glycan array binding signal (z-score within array); higher = stronger binding
# Conditions in all cases: glycan notation: IUPAC condensed, linker removed
# Gal(a1-3)Gal = target: Gal(a1-3)Gal
# In short: (§1)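 Glycan array data were curated from 3228 arrays in the Consortium for Functional Glycomics database and kept only where the protein sequence was available. Glycan names were converted to IUPAC-condensed notation, and columns mapping to the same glycan were averaged. The binding signal is a within-array Z-score, averaged across arrays of the same protein sequence at different concentrations or buffers and across linkers. Negative Z-scores can be read as non-binding.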
# Gal(a1-3)Gal(b1-3)GlcNAc = target: Gal(a1-3)Gal(b1-3)GlcNAc
# In short: as §1
# [1] = target: Gal(a1-3)Gal(b1-3)GlcNAc(b1-2)Man
# In short: as §1
# [2] = target: Gal(a1-3)Gal(b1-3)GlcNAc(b1-2)Man(a1-3)[Gal(a1-3)Gal(b1-3)GlcNAc(b1-2)Man(a1-6)]Man(b1-4)GlcNAc(b1-4)GlcNAc
# In short: as §1
# [3] = target: Gal(a1-3)Gal(b1-3)GlcNAc(b1-3)GalNAc
# In short: as §1
# [4] = target: Gal(a1-3)Gal(b1-3)GlcNAc(b1-6)GalNAc
# In short: as §1
# [5] = target: Gal(a1-3)Gal(b1-3)[Fuc(a1-4)]GlcNAc(b1-2)Man(a1-3)[Gal(a1-3)Gal(b1-3)[Fuc(a1-4)]GlcNAc(b1-2)Man(a1-6)]Man(b1-4)GlcNAc(b1-4)GlcNAc
# In short: as §1
# Gal(a1-3)Gal(b1-4)Glc = target: Gal(a1-3)Gal(b1-4)Glc
# In short: as §1
# Gal(a1-3)Gal(b1-4)GlcNAc = target: Gal(a1-3)Gal(b1-4)GlcNAc
# In short: as §1
# [6] = target: Gal(a1-3)Gal(b1-4)GlcNAc(b1-2)Man
# In short: as §1
# [7] = target: Gal(a1-3)Gal(b1-4)GlcNAc(b1-2)Man(a1-3)[Gal(a1-3)Gal(b1-4)GlcNAc(b1-2)Man(a1-6)]Man(b1-4)GlcNAc(b1-4)GlcNAc
# In short: as §1
# [8] = target: Gal(a1-3)Gal(b1-4)GlcNAc(b1-3)GalNAc
# In short: as §1
# [9] = target: Gal(a1-3)Gal(b1-4)GlcNAc(b1-6)GalNAc
# In short: as §1
# [10] = target: Gal(a1-3)Gal(b1-4)[Fuc(a1-3)]GlcNAc
# In short: as §1
# [11] = target: Gal(a1-3)Gal(b1-4)[Fuc(a1-3)]GlcNAc(b1-2)Man(a1-3)[Gal(a1-3)Gal(b1-4)[Fuc(a1-3)]GlcNAc(b1-2)Man(a1-6)]Man(b1-4)GlcNAc(b1-4)GlcNAc
# In short: as §1
# Gal(a1-3)GalNAc = target: Gal(a1-3)GalNAc
# In short: as §1
# [12] = target: Gal(a1-3)[Gal(a1-4)]Gal(b1-4)GlcNAc
# In short: as §1
# [13] = target: Gal(a1-4)Gal(b1-3)GlcNAc(b1-2)Man(a1-3)[Gal(a1-4)Gal(b1-3)GlcNAc(b1-2)Man(a1-6)]Man(b1-4)GlcNAc(b1-4)GlcNAc
# In short: as §1
# Gal(a1-4)Gal(b1-4)Glc = target: Gal(a1-4)Gal(b1-4)Glc
# In short: as §1
# Gal(a1-4)Gal(b1-4)GlcNAc = target: Gal(a1-4)Gal(b1-4)GlcNAc
# In short: as §1
# [14] = target: Gal(a1-4)Gal(b1-4)GlcNAc(b1-2)Man(a1-3)[Gal(a1-4)Gal(b1-4)GlcNAc(b1-2)Man(a1-6)]Man(b1-4)GlcNAc(b1-4)GlcNAc
# In short: as §1
# [15] = target: Gal(a1-4)Gal(b1-4)GlcNAc(b1-3)Gal(b1-4)Glc
# In short: as §1
# Gal(a1-4)GlcNAc = target: Gal(a1-4)GlcNAc
# In short: as §1
# Gal(a1-6)Glc = target: Gal(a1-6)Glc
# In short: as §1
# Gal(b1-2)Gal = target: Gal(b1-2)Gal
# In short: as §1
# Gal(b1-3)Gal = target: Gal(b1-3)Gal
# In short: as §1
# Gal(b1-3)Gal(b1-4)GlcNAc = target: Gal(b1-3)Gal(b1-4)GlcNAc
# In short: as §1
# Gal(b1-3)GalNAc = target: Gal(b1-3)GalNAc
# In short: as §1
# [16] = target: Gal(b1-3)GalNAc(a1-3)[Fuc(a1-2)]Gal(b1-4)Glc
# In short: as §1
# [17] = target: Gal(b1-3)GalNAc(a1-3)[Fuc(a1-2)]Gal(b1-4)GlcNAc
# In short: as §1
# Gal(b1-3)GalNAc(b1-3)Gal = target: Gal(b1-3)GalNAc(b1-3)Gal
# In short: as §1
# [18] = target: Gal(b1-3)GalNAc(b1-3)Gal(a1-4)Gal(b1-4)Glc
# In short: as §1
# [19] = target: Gal(b1-3)GalNAc(b1-4)Gal(b1-4)Glc
# In short: as §1
# [20] = target: Gal(b1-3)GalNAc(b1-4)[Neu5Ac(a2-3)]Gal(b1-4)Glc
# In short: as §1
# Gal(b1-3)GlcNAc = target: Gal(b1-3)GlcNAc
# In short: as §1
# [21] = target: Gal(b1-3)GlcNAc(a1-3)Gal(b1-4)GlcNAc
# In short: as §1
# [22] = target: Gal(b1-3)GlcNAc(a1-6)Gal(b1-4)GlcNAc
# In short: as §1
# Gal(b1-3)GlcNAc(b1-2)Man = target: Gal(b1-3)GlcNAc(b1-2)Man
# In short: as §1
binder,measurement,setting,value
DC-ASGPR L+GEE (Homo sapiens) (protein) MTRTYENFQYLENKVKVQGFKNGPLPLQSLLQRLRSGPCHLLLSLGLGLLLLVIICVVGFQNSKFQRDLVTLRTDFSNFTSNTVAEIQALTSQGSSLEETIASLKAEVEGFKQERQAGVSELQEHTTQKAHLGHCPHCPSVCVPVHSEMLLRVQQLVQDLKKLTCQVATLNNNGEEASTEGTCCPVNWVEHQDSCYWFSHSGMSWAEAEKYCQLKNAHLVVINSREEQNFVQKYLGSAYTWMGLSDPEGAWKWVDGTDYATGFQNWKPGQPDDWQGHGLGGGEDCAHFHPDGRWNDDVCQRPYHWVCEAGLGQTSQESH,glycan array binding signal (z-score),Gal(a1-3)Gal,0.243
same,glycan array binding signal (z-score),Gal(a1-3)Gal(b1-3)GlcNAc,-0.123
same,glycan array binding signal (z-score),[1],-0.414
same,glycan array binding signal (z-score),[2],-0.423
same,glycan array binding signal (z-score),[3],-0.315
same,glycan array binding signal (z-score),[4],2.34
same,glycan array binding signal (z-score),[5],-0.455
same,glycan array binding signal (z-score),Gal(a1-3)Gal(b1-4)Glc,-0.207
same,glycan array binding signal (z-score),Gal(a1-3)Gal(b1-4)GlcNAc,-0.402
same,glycan array binding signal (z-score),[6],-0.585
same,glycan array binding signal (z-score),[7],-0.425
same,glycan array binding signal (z-score),[8],-0.237
same,glycan array binding signal (z-score),[9],3.21
same,glycan array binding signal (z-score),[10],-0.544
same,glycan array binding signal (z-score),[11],0.091
same,glycan array binding signal (z-score),Gal(a1-3)GalNAc,-0.254
same,glycan array binding signal (z-score),[12],-0.371
same,glycan array binding signal (z-score),[13],-0.042
same,glycan array binding signal (z-score),Gal(a1-4)Gal(b1-4)Glc,-0.702
same,glycan array binding signal (z-score),Gal(a1-4)Gal(b1-4)GlcNAc,-0.409
same,glycan array binding signal (z-score),[14],-0.427
same,glycan array binding signal (z-score),[15],-1.03
same,glycan array binding signal (z-score),Gal(a1-4)GlcNAc,0.107
same,glycan array binding signal (z-score),Gal(a1-6)Glc,0.01
same,glycan array binding signal (z-score),Gal(b1-2)Gal,-0.162
same,glycan array binding signal (z-score),Gal(b1-3)Gal,0.294
same,glycan array binding signal (z-score),Gal(b1-3)Gal(b1-4)GlcNAc,-0.467
same,glycan array binding signal (z-score),Gal(b1-3)GalNAc,-0.211
same,glycan array binding signal (z-score),[16],-0.007
same,glycan array binding signal (z-score),[17],-0.615
same,glycan array binding signal (z-score),Gal(b1-3)GalNAc(b1-3)Gal,-0.534
same,glycan array binding signal (z-score),[18],0.427
same,glycan array binding signal (z-score),[19],-0.69
same,glycan array binding signal (z-score),[20],1.04
same,glycan array binding signal (z-score),Gal(b1-3)GlcNAc,-0.018
same,glycan array binding signal (z-score),[21],0.167
same,glycan array binding signal (z-score),[22],-0.332
same,glycan array binding signal (z-score),Gal(b1-3)GlcNAc(b1-2)Man,-0.26
